Results: patent US6833456B2, “Indolyl-urea derivatives of thienopyridines useful as antiangiogenic agents, and methods for their use” (Agouron Pharmaceuticals, Inc., priority 2002, dated 2004)
The name of at least one read-out is uncertain.

System: human umbilical vein endothelial cells (HUVEC)
Experiment: HUVEC+VEGF proliferation assay
Type: cell-based
Details: VEGF 6 ng/mL, 72 hours, MTT
Procedure: This assay determines the ability of a test compound to inhibit the growth factor-stimulated proliferation of human umbilical vein endothelial cells (“HUVEC”). HUVEC cells (passage 3-4, Clonetics, Corp.) were thawed into EGM2 culture medium (Clonetics Corp) in T75 flasks. Fresh EGM2 medium was added to the flasks 24 hours later. Four or five days later, cells were exposed to another culture medium (F12K medium supplemented with 10% fetal bovine serum (FBS), 60 μg/mL endothelial cell growth supplement (ECGS), and 0.1 mg/mL heparin). Exponentially-growing HUVEC cells were used in experiments thereafter. Ten to twelve thousand HUVEC cells were plated in 96-well dishes in 100 μl of rich, culture medium (described above). The cells were allowed to attach for 24 hours in this medium. The medium was then removed by aspiration and 105 μl of starvation media (F12K+1% FBS) was added to each well. After 24 hours, 15 μl of test agent dissolved in 1% DMSO in starvation medium or this vehicle alone was added into each treatment well; the final DMSO concentration was 0.1%. One hour later, 30 μl of VEGF (30 ng/mL) in starvation media was added to all wells except those containing untreated controls; the final VEGF concentration was 6 ng/mL. Cellular proliferation was quantified 72 hours later by MTT dye reduction, at which time cells were exposed for 4 hours MTT (Promega Corp.). Dye reduction was stopped by addition of a stop solution (Promega Corp.) and absorbance at 595 nm was determined on a 96-well spectrophotometer plate reader.

Compound: CNC(=O)n1c(C)cc2cc(Nc3ccnc4cc(C(=O)N5CC[C@H](OC)C5)sc34)ccc21 [Example 1g, 5-[2-(3S-Methoxy-pyrrolidine-1-carbonyl)-thieno[3,2-b]pyridin-7-ylamino]-2-methyl-indole-1-carboxylic acid methylamide]
- IC50: 0.56 nM

Compound: CNC(=O)n1c(C)cc2cc(Nc3ccnc4cc(C(=O)N5CC[C@@H](O)C5)sc34)ccc21 [Example 1n, 5-[2-(3R-Hydroxy-pyrrolidine-1-carbonyl)-thieno[3,2-b]pyridin-7-ylamino]-2-methyl-indole-1-carboxylic acid methylamide]
- IC50: 0.46 nM

Compound: CNC(=O)n1c(C)cc2cc(Nc3ccnc4cc(-c5nccn5C)sc34)ccc21 [Example 2a, 5-(2-[1-methyl-1H-imidazol-2-yl]thieno[3,2-b]pyridin-7-ylamino)-2-methylindole-1-carboxylic acid methylamide]
- IC50: 0.1 nM

Compound: COC[C@@H]1CCCN1C(=O)c1cc2nccc(Nc3ccc4c(c3)cc(C)n4C(=O)NC3CC3)c2s1 [Example 2c, 5-(2-[(S)-2-(methoxymethyl)pyrrolidine-1-carbonyl]thieno[3,2-b]pyridin-7-ylamino)-2-methylindole-1-carboxylic acid cyclopropylamide]
- IC50: 0.47 nM

Compound: Cc1cc2cc(Nc3ccnc4cc(C(=O)N5CCC[C@H]5CO)sc34)ccc2n1C(=O)NC1CC1 [Example 2e, 5-(2-[(S)-2-(hydroxymethyl)pyrrolidine-1-carbonyl]thieno[3,2-b]pyridin-7-ylamino)-2-methylindole-1-carboxylic acid cyclopropylamide]
- IC50: 0.403 nM

Compound: CNC(=O)n1c(C)cc2cc(Nc3ccnc4cc(-c5nc(C(C)(C)O)cs5)sc34)ccc21 [Example 3a, 5-{2-[4-(1-Hydroxy-1-methyl-ethyl)-thiazol-2-yl]-thieno[3,2-b]pyridin-7-ylamino}-2-methyl-indole-1-carboxylic acid methylamide]
- IC50: 0.41 nM

Compound: CNC(=O)n1c(C)cc2cc(Oc3ccnc4cc(C(=O)N5C[C@H](OC)C[C@H]5CO)sc34)ccc21 [Example 3o, 5-[2-(2-Hydroxymethyl-4-methoxy-pyrrolidine-1-carbonyl)-thieno[3,2-b]pyridin-7-yloxy]-2-methyl-indole-1-carboxylic acid methylamide]
- IC50: 0.48 nM

Compound: C#CCNC(=O)n1c(C)cc2cc(Oc3ccnc4cc(C(=O)N5CC[C@H](OC)C5)sc34)ccc21 [Example 4f, 5-[2-(3S-Methoxy-pyrrolidine-1-carbonyl)-thieno[3,2-b]pyridin-7-yloxy]-2-methyl-indole-1-carboxylic acid prop-2-ynylamide]
- IC50: 0.03 nM

Compound: C#CCNC(=O)n1c(C)cc2cc(Oc3ccnc4cc(C(=O)N5CC[C@@H](O)C5)sc34)ccc21 [Example 4o, 5-[2-(3R-Hydroxy-pyrrolidine-1-carbonyl)-thieno[3,2-b]pyridin-7-yloxy]-2-methyl-indole-1-carboxylic acid prop-2-ynylamide]
- IC50: 0.09 nM

Compound: CNC(=O)n1c(C)cc2c(F)c(Oc3ccnc4cc(C(=O)N5CC[C@H](OC)C5)sc34)ccc21 [Example 5f, 4-Fluoro-5-[2-(3S-methoxy-pyrrolidine-1-carbonyl)-thieno[3,2-b]pyridin-7-yloxy]-2-methyl-indole-1-carboxylic acid methylamide]
- IC50: 0.1 nM

Compound: C#CCNC(=O)n1c(C)cc2c(F)c(Oc3ccnc4cc(C(=O)N5CC[C@H](OC)C5)sc34)ccc21 [Example 5g, 4-Fluoro-5-[2-(3S-methoxy-pyrrolidine-1-carbonyl)-thieno[3,2-b]pyridin-7-yloxy]-2-methyl-indole-1-carboxylic acid prop-2-ynylamide]
- IC50: 0.12 nM

Compound: CCCNC(=O)n1c(C)cc2cc(Oc3ccnc4cc(C(=O)N5CC[C@@H](N(C)C)C5)sc34)ccc21 [Example 8h, 5-[(2-{[(3R)-3-(Dimethylamino)pyrrolidin-1-yl]carbonyl}thieno[3,2-b]pyridin-7-yl)oxy]-2-methyl-N-propyl-1H-indole-1-carboxamide]
- IC50: 0.2 nM

Compound: Cc1cc2cc(Oc3ccnc4cc(C(=O)N5CC[C@@H](N(C)C)C5)sc34)ccc2n1C(=O)NCCCO [Example 8i, 5-[(2-{[(3R)-3-(Dimethylamino)pyrrolidin-1-yl]carbonyl}thieno[3,2-b]pyridin-7-yl)oxy]-N-(3-hydroxypropyl)-2-methyl-1H-indole-1-carboxamide]
- IC50: 0.25 nM
